± gives the standard deviation of the averaged measurements. Some of the results follow.

The test system of the assay is PfAP2-LT AP2 domain (GST-tagged). Kind of assay: gcPBM binding intensity (ln(normalized median fluorescence intensity)); higher = stronger DNA binding. In short, it runs like this:
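An Agilent 4 × 180k array of primer-extended double-stranded 36-bp intergenic genomic probes, with negative controls, was incubated for 1 h with GST-tagged P. falciparum DNA-binding domains expressed in E. coli. Alexa488 anti-GST antibody detected bound protein, scanned at 488 nm. Binding intensity is the highest Masliner-normalised natural-log median intensity across replicate spots of either probe orientation.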
For TAATATATTTTTAACATGCACTGTATTTTAATATAT, the “gcPBM binding intensity (ln)” value amounted to 8.76 ± 0.4.

As to “TATACAAATATATATGCACACACATATATGTATATG [CACACA_site9007]”, the “gcPBM binding intensity (ln)” value is 9.3 ± 0.3.

In the case of “TAATTAAAGTTATCTACACACCTTTATAGATATATA [CACACA_site7778]”, the “gcPBM binding intensity (ln)” value was determined as 8.71 ± 0.39.

For “TATAAAACAAATATATGTACATATCATAGTATAATA [XGTACX_site2965]”, the “gcPBM binding intensity (ln)” value turned out to be 8.85 ± 0.45.

With “ACAAGTATTCCTTTTGCACACCTTTCTGCACCTTAT [CACACA_site3873]”, the “gcPBM binding intensity (ln)” value was 9.54 ± 0.4.

For the sequence “ATTATGAATTTAAGACGTACAAAAAATTTTTATTCA [XGTACX_site5682]”, the “gcPBM binding intensity (ln)” value is 8.44 ± 0.38.

Consider “ATTAAAATAATACGTACACACATGTATAATACATAT [CACACA_site1005]”, for which the “gcPBM binding intensity (ln)” value was 9.22 ± 0.32.

For AAATACTTATTCGTGGTGCAACAATTTTAAAAATTA, the “gcPBM binding intensity (ln)” value worked out at 8.62 ± 0.4.

Consider “AATAATATATTATATGCATGTGTATAATTTGATATA [TGCATGCA_site1058]”, for which the “gcPBM binding intensity (ln)” value came out at 8.79 ± 0.35.

With “TTTGGTTATTTGACCTGTACACATTTAATTATTTTT [XGTACX_site5170]”, the “gcPBM binding intensity (ln)” value stood at 8.85 ± 0.4.

On to “CAAAGGAAATGGTGTACACAATTTTTCCTTTTTCGT [CACACA_site4800]”, for which the “gcPBM binding intensity (ln)” value amounted to 8.83 ± 0.35.

Turning to “AGCAAGACGGGGTGCACACAAACTAATATGCCGAAT [CACACA_site159]”, the “gcPBM binding intensity (ln)” value was 9.53 ± 0.52.

With “TATTACATAATATATGTACACACGCAAATACTTATA [CACACA_site7994]”, the “gcPBM binding intensity (ln)” value worked out at 8.98 ± 0.27.

With “TAACAACGATACAATTGTACAAATTATATATATATA [XGTACX_site4687]”, the “gcPBM binding intensity (ln)” value is 9.39 ± 0.2.

On to “CAAAAAAAGTTATACACACACACACGGATATAAATA [CACACA_site6619]”, for which the “gcPBM binding intensity (ln)” value is 9.91 ± 0.085.

With “TTTTTTTTTTTTTTTTGTACATAATTCCATATTTTT [XGTACX_site1789]”, the “gcPBM binding intensity (ln)” value worked out at 8.62 ± 0.5.

Regarding “TGATCTTTACACATATTATATATATATAAAAAAAAA [XGTACX_negctrl_site360]”, the “gcPBM binding intensity (ln)” value was 8.38 ± 0.49.

Take “AAAAAAAAAAGAAACACACACATATAGATTTATAAC [CACACA_site6927]”: the “gcPBM binding intensity (ln)” value came to 9.27 ± 0.36.

Turning to “AATCTAGGTATTTATACACACTAAAATAATATACGA [CACACA_site4515]”, the “gcPBM binding intensity (ln)” value was 8.88 ± 0.38.

For “AAAAAATTAACCGTAACACACACACCGATATATATA [CACACA_site9312]”, the “gcPBM binding intensity (ln)” value worked out at 9.73 ± 0.2.

As for “ATTTAAATAATATTCACACACAAAATTAAATTTTAA [CACACA_site6246]”, the “gcPBM binding intensity (ln)” value came out at 8.82 ± 0.45.

Take “GCTCTAATTAATATTTGTACACACATATTTAACCTA [XGTACX_site6808]”: the “gcPBM binding intensity (ln)” value came to 9.2 ± 0.48.

As for “CCCTCAACGAATTTGAGTACACATTTTAAATGATAT [XGTACX_site7763]”, the “gcPBM binding intensity (ln)” value was determined as 8.57 ± 0.4.

Take “ATCGCAAGATTAATATAAGGAGAAACGTTTATATAT [GTGCAC_negctrl_site267]”: the “gcPBM binding intensity (ln)” value worked out at 8.82 ± 0.52.

“TTATAACATATAAACATGTTTCATCTTACGTATTTT [GTGCAC_negctrl_site694]”: the “gcPBM binding intensity (ln)” value amounted to 8.98 ± 0.45.

For the origin of these results see the supplement of paper PMC11417369.
